From article PMC4336329 (PLoS ONE, 2015)
Out of some 310,000 compounds screened, about 14,000 (4.5%) showed an effect of 50% or more. The effect is printed as a negative number. Some of the results follow.

Target: human ether-à-go-go-related gene (hERG) potassium channel (human, UniProt Q12809)
Test: primary screen, population patch clamp on CHO cells stably expressing hERG
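Further: peak tail current of the secondary pulse compared with the same well before compound.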

human ether-à-go-go-related gene (hERG) potassium channel, sequence (Q12809 whole entry, looked up): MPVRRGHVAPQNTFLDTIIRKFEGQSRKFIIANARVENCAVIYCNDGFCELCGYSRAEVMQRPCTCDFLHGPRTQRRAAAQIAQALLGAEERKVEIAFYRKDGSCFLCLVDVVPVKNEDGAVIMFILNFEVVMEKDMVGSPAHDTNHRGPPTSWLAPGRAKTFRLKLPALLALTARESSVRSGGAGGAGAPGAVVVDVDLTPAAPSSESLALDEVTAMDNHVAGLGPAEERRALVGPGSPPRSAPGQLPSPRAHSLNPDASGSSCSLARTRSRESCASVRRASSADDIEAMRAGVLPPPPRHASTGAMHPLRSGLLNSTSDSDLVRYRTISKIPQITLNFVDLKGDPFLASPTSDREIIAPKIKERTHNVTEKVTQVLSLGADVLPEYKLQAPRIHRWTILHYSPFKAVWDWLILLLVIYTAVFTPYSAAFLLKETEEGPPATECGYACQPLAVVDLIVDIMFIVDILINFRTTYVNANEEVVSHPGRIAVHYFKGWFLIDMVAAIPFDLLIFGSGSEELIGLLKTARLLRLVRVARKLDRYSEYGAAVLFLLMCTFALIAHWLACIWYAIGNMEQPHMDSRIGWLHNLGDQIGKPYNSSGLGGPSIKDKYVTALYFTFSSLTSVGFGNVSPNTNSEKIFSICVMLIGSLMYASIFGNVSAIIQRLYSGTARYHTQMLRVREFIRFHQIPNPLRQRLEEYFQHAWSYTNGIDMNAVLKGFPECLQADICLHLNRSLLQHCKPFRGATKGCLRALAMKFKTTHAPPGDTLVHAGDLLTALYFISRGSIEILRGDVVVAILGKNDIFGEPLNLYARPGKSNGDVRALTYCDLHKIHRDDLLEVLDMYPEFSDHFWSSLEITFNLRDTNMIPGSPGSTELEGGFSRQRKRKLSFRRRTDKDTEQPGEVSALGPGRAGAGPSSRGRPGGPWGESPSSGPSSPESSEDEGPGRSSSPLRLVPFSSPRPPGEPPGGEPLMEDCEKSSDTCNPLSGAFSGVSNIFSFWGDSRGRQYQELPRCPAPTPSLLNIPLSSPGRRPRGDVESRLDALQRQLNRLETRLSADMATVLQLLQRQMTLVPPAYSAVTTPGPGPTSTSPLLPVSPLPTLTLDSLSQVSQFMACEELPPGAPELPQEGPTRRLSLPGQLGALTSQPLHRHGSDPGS

| SMILES | hERG current change (%, negative = inhibition) at 10uM [%] |
| --- | --- |
| CCC1=NN2C(=N)/C(=C\c3cccn3-c3ccc(OC)cc3)C(=O)N=C2S1 | -6.71 |
| Clc1ccc(Cc2noc(Cc3ccccc3)n2)cc1Cl | 0.774 |
| COc1ccc(CNC(=O)[C@H](Cc2c[nH]c3ccccc23)NC(C)=O)cc1OC | 8.4 |
| O=C(CCNS(=O)(=O)c1cccs1)NCc1cccs1 | 24 |
| O=C(Nc1ccc(NC(=O)c2ccc([N+](=O)[O-])o2)cc1Cl)c1ccco1 | 9.42 |
| Cc1ccc2cccc(S(=O)(=O)N3CCCc4ccccc43)c2n1 | 19.4 |
| O=C(Nc1nnc(C2=COCCO2)o1)c1ccc(Cl)cc1 | 16.6 |
| Cc1c([N+](=O)[O-])c(C(=O)NC2CCCCC2)nn1C | -19.6 |
| O=C(NCC1CCCO1)c1cc2n(n1)C(C(F)(F)F)CC(c1ccc(Br)cc1)N2 (stereo not shown) | -3.05 |
| O=C1NC(NS(=O)(=O)c2ccccc2)(C(F)(F)F)C(=O)N1Cc1ccccc1 (stereo not shown) | 12.2 |
| O=Nc1ccc(NOC(=O)c2ccccc2)cc1 | 5.89 |
| COc1ccc(-c2nnc(NC(=O)c3ccc(S(=O)(=O)N4COCC4(C)C)cc3)o2)cc1 | -3.37 |
| CCN1CCN(CC(=O)Nc2ccc(Cl)c(S(=O)(=O)N(C)C)c2)CC1 | -1.96 |
| Cc1ccc(C(=O)Nc2ccc3nc(C)sc3c2)s1 | 22.2 |
| Cc1cc2ncc(S(=O)(=O)C(C)(C)C)c(N)n2n1 | 26.7 |
| COc1ccc(OC)c(-c2csc(NC(=O)CN3C(=O)C4CCCCC4C3=O)n2)c1 (stereo not shown) | -0.554 |
| O=C(O)c1cc(=O)c2ccccc2o1 | 24 |
| Cn1c(=O)[nH]c(=O)c2c1nc(N1CCOCC1)n2CC(O)COc1ccccc1 (stereo not shown) | 6.81 |
| Cl.Cn1c(O)c(C=NCCCN2CCCC2=O)c(=O)n(C)c1=O.O=C(O)C(=O)O | 19 |
| CC(SCc1cn2cc(Cl)ccc2n1)C(=O)O (stereo not shown) | -1.51 |
| CC(C)CN1CCN(Cc2cccc3cccnc23)CC1CCO (stereo not shown) | 6.58 |
| C[C@@H]1Cc2c(O)c(O)cc(O)c2C(=O)O1 | 12.4 |
| CCOC(=O)C1CCCN(C(=O)C2CCCN(S(C)(=O)=O)C2)C1 (stereo not shown) | 1.81 |

| SMILES | hERG current change (%, negative = inhibition) at 10uM [%] |
| --- | --- |
| CCc1ccc(S(=O)(=O)Nc2c(NC3CCCCC3)c3ccccc3oc2=O)cc1 | -3.7 |
| COC(=O)C1=CN(C2CC2)C=C(C(=O)OC)C1c1ccc(C(=O)OC)cc1 | 17.9 |
| Cc1ccc(NC(=O)c2cc(S(=O)(=O)N3CCOCC3)cn2C)cc1F | -20 |
| CC(=O)OCC1(C)CN(c2ccccc2)N(C(C)=O)C1=O (stereo not shown) | 2.34 |
| C=CCN1C(=S)CC(c2ccccc2)=Nc2ccccc21 | 15.3 |
| O=C1Cn2c(nc3ccccc32)N1c1ccccc1F | -4.86 |
| COc1cccc(N2CCN(C(C)C(=O)NC34CC5CC(CC(C5)C3)C4)CC2)c1 (stereo not shown) | -6.39 |
| CC1CN(C(=O)COC(=O)CSc2ccc(C(N)=O)cc2[N+](=O)[O-])CC(C)O1 (stereo not shown) | -2.1 |
| COc1ccc(N2CC(C(=O)N/N=C/c3c[nH]c4ccccc34)CC2=O)cc1 (stereo not shown) | 7.94 |
| CN(C(=O)COC(=O)c1sc2ccccc2c1Cl)C1CCCCC1 | -4.05 |
| CC1C(=O)N2CCCc3cc(NS(C)(=O)=O)cc1c32 (stereo not shown) | 10.3 |
| COC(=O)CC1(C(=O)OC)Oc2ccc(Br)cc2C(=O)N1c1cc(Cl)c(Cl)cc1Cl (stereo not shown) | 11.6 |
| CCc1ccc(C(=O)CSc2n[nH]c(-c3ccncc3)n2)cc1 | 11.2 |
| COc1ccc(C(=O)c2oc3ccccc3c2NC(C)=O)cc1 | 0.829 |
| CCCC(CCC)C(=O)Nc1cccc(C(=O)O)c1 | -3.46 |
| CC1CCN(c2ccc3nnc(CCC(=O)Nc4ccc(F)cc4)n3n2)CC1 | -39.6 |
| COc1ccc(C(=O)c2cnc3cc4c(cc3c2C)OCO4)cc1 | -24.7 |
| Cn1cc(Cl)c(-c2n[nH]c(=S)n2-c2ccc(F)cc2)n1 | 15.4 |
| O=C(c1cc(-c2ccccc2)nc2ccccc12)N1N=C(C(F)F)CC1(O)C(F)F (stereo not shown) | -13.2 |
| CN1C(=O)CSc2ccc(C(=O)O)cc21 | -3.84 |
| CCN(CC(=O)Nc1ccccc1OC)C(=O)CSCc1ccc(C)cc1 | -2.36 |
| COC(=O)c1[nH]c2cc(OC)ccc2c1N | 16 |
| COc1cc(CN2CCNC(=O)C2CC(=O)N(C)CCC2CCOCC2)cc(OC)c1 (stereo not shown) | 14.6 |

| SMILES | hERG current change (%, negative = inhibition) at 10uM [%] |
| --- | --- |
| COc1ccccc1NC(=O)CN(c1ccccc1OC)S(=O)(=O)c1ccccc1 | 2.41 |
| Cc1nc(SCC(=O)c2ccc(F)cc2)c([N+](=O)[O-])[nH]1 | 27.3 |
| COc1ccccc1NC(=O)C1CCN(c2ncccn2)CC1 | -9.55 |
| O=[N+]([O-])c1cnc(Nc2ccccc2)nc1Nc1ccccc1 | 9.5 |
| O=C(NCCN1CCOCC1)C1CCC(CNS(=O)(=O)c2ccc(Cl)cc2)CC1 (stereo not shown) | 1.81 |
| COc1ccc(OC)c(CCNC(=O)Cc2ccc(NC3=NC4CS(=O)(=O)CC4S3)cc2)c1 (stereo not shown) | -6.43 |
| O=C(NCc1ccc2[nH]c3c(c2c1)CCCC3)c1ccc(S(=O)(=O)N2CCCC2)cc1 | 7.54 |
| CCCCNC(=O)CCN1N=C(c2ccccc2)CCC1=O | -13 |
| c1ccc(C2=Nc3cccc4cccc(c34)N2)cc1 | 0.595 |
| COC(=O)C(=N/Nc1ccccc1C(=O)OC)/C(C)=N/O | 16.8 |
| O=C(Nc1cc(-c2nn(CC(=O)N3CCCCC3)c(=O)c3ccccc23)ccc1N1CCOCC1)c1ccc(Cl)cc1 | -52.6 |
| Cc1cc(C)n(-c2ccc(C(=O)NCc3ccc4c(c3)OCO4)cc2)n1 | -30.2 |
| Nc1c(C(=O)c2ccc(F)cc2)oc2ccccc12 | 1.53 |
| COC(=O)C(Cc1ccccc1)NS(=O)(=O)c1ccccc1Br (stereo not shown) | -2.68 |
| COCCCNc1nnc(Cc2ccc(Cl)cc2)c(=O)[nH]1 | 24.1 |
| CCOC(=O)/C=c1\sc2n(c1=O)CCN=2 | 12.7 |
| CCc1cc2ccc(C)c(C)c2nc1SCC(=O)Nc1cc(C)on1 | 5.72 |
| Cc1cc(C)n(CCCNC(=O)C(C)(C)Oc2ccc(Cl)cc2)n1 | -2.8 |
| COCCCNC(=O)c1c(F)c(F)c(F)c(F)c1F | 9.66 |
| CCOc1cc(C(C(=O)NCC2CCCO2)N(C(=O)Cn2nnc3ccccc32)c2ccc(NC(C)=O)cc2)ccc1O (stereo not shown) | 11 |
| Cc1ccc(NC(=O)CSc2n[nH]c(-c3ccccn3)n2)cc1 | -8.06 |
| Cc1sc2ncnc(N3CCC(C(=O)N(C)CC(=O)Nc4ccccc4Cl)CC3)c2c1C | -67.7 |
| O=C(O)/C=C/c1cccc(OCc2ccccc2)c1 | 12.7 |

| SMILES | hERG current change (%, negative = inhibition) at 10uM [%] |
| --- | --- |
| CN(Cc1cn(C)nc1-c1ccccc1F)Cc1nccn1C | 29.5 |
| Fc1ccc2[nH]c3c(c2c1)CN(C(=S)NCc1ccccc1)CC3 | 10.3 |
| Fc1ccc2cnc(-c3ccccc3)c(-c3ccc(C(F)(F)F)cc3)c2c1 | 13.5 |
| Cc1ccccc1C(=O)NC(=S)NC1CCS(=O)(=O)C1 (stereo not shown) | 4.59 |
| COc1ccc(C(=O)Nc2ccccc2C(=O)N2CCN(c3ccccc3)CC2)cc1 | 0.882 |
| COc1cc2c(cc1OC)CN(CC(=O)Nc1ccc(S(=O)(=O)N3CCCC3)cc1)CC2 | -3.4 |
| Cc1ccc(S(=O)(=O)/C(C#N)=C/c2c[nH]c3ccccc23)cc1 | 3.58 |
| Fc1cccc(NC(=S)NCC(c2cccnc2)N2CCOCC2)c1 (stereo not shown) | -16.1 |
| CCC(C)c1ccc(OCC(=O)NNC(=O)C2CCCCC2)cc1 (stereo not shown) | 2.48 |
| O=C(C1CCC1)N(CCc1ccccc1)Cc1nc2ccccc2c(=O)[nH]1 | -4.04 |
| Cc1ccc(S(=O)(=O)NC(=O)NC(C)Cc2ccccc2)cc1 (stereo not shown) | 34.9 |
| CCn1c(SCC(=O)Nc2ccccc2C)nc2nc3c(cc2c1=O)COC(C)(C)C3 | -21.4 |
| Cc1cc2ccccc2n1CCNC(=O)C1CCCCC1 | -4.75 |
| Cc1ccnc(NC(=S)NC(=O)c2cncc(Br)c2)c1 | -6.59 |
| CCCC(=O)Nc1ccc(Br)cn1 | 12.9 |
| Cc1ccc(P(C)(=O)c2ccc(C)cc2)cc1 | 11.6 |
| Cc1ncc(CSc2nccc(=O)[nH]2)c(CO)c1O | 21.2 |
| O=C(CCCc1ccccc1)Nc1ccnn1C1CCN(Cc2ccccc2)CC1 | -77.3 |
| O=C(NCCOc1ccc(Cl)cc1)C1CCCCC1 | 2.17 |
| Cc1cc(C)c2oc(C(=O)Nc3ccc(S(=O)(=O)Nc4nccs4)cc3)cc(=O)c2c1 | 14.5 |
| Cc1noc(C)c1C(=O)N1CCCC(Nc2ccc(C(C)C)cc2)C1 (stereo not shown) | 22.2 |
| CCc1cccc(NC(=O)c2snc3c(=O)[nH]cnc23)c1 | 7.58 |
